Sequences and labels used below:
B1: CPEB3 Ribozyme (parent)
chain: UAACAGGGGGCCACAGCAGAAGCGUUCACGUCGCAGCCCCUGUCAGAUUCUGGUGAAUCUGCGAAUUCUGCUGUAUAUCUC

Read counts are not given, so values of variants with three or more changes are uncertain.

In the data set the parent is B1. Briefly: self-cleavage, relative activity (ratio to wild type); higher = more cleavage; in vitro, sequencing. An outline of the steps:
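Relative activity was defined as the cleaved/total read fraction for a variant divided by the same fraction for the unmutated ribozyme. CPEB3 self-cleaving ribozyme libraries were made by rounds of error-prone PCR, barcoded, and transcribed in vitro with T7 RNA polymerase for 5 hours at 37°C, and cleavage ran through transcription plus a 15 min DNase I step before EDTA. Illumina sequencing of template-switched reverse transcripts gave the reads, and DNA sequencing mapped the barcodes. Averages come from three batches, using variants with at least 5 reads.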
Turning to UAACAGGGGGCCACCGCAGAAGCGUUCACGUCGCAGCCCCUGUCAGAUUCUGGUGAGUCUGCGAAUUCUGCCGUAUAUCUC [A15C A57G U72C], the self-cleavage came out at 0.71.
UAACAGGGGGCCACCGCAGAAGCGUUCUCGUCGCAGCCCCUGUCAGAUUCUGGUGAAUCUGCGAAUUCUGCUGUAUAUCAC [A15C A28U U80A]: the self-cleavage was 0.94.
Take UAACAGGGGGCCACCGCGGAAGCGUUCACGUCGCAGCCCUUGUCAGAUUCUGGUGAAUCUGCGAAUUCUGCUGUAUAUCUC [A15C A18G C40U]: the self-cleavage amounted to 0.24.
The value for UAACAGGGGGCCACCGCAGAAGCGUUCGCGUCGCAGCCCCUGUCGGAUUCUGGUGAAUCUGCGAAUUCUGCUGUAUAUCUC [A15C A28G A45G] was 0.15.
Next, UAACAGGGGGCCACCGCAGAAGCGUUCACGUCGCAGCCCCUGUCUGAUUCUGGUGUAUCUGCGAAUUCUGCUGUAUAUCUC [A15C A45U A56U]: 0.13; UAACAGGGGGCCACCGCAGAAGCGUUCACGUCGCAGCCCCUGUCGGACUCAGGUGAAUCUGCGAAUUCUGCUGUAUAUCUC [A15C A45G U48C U51A]: 0.23; UAACAGGGGGCCACCGCAGAAGCGUUCAGGUCGCAGCCCCUGCCAGAUUCCGGUGAAUCUGCGAAUUCUGCUGUAUAUCUC [A15C C29G U43C U51C]: 0.21.
As for UAACAGGGGGCCAUAGCAGAAGCGUUCACGUCGCAGCCCCUGUCAGACUCCGGUGAAUCUGCGAAUUCUGCAGUAUAUCUC [C14U U48C U51C U72A], the self-cleavage was determined as 0.16.
Next, UAACAGGGGGCCAUAGCAGAAGCGUUCACGUCGCAGCCCCUGUCAGAUACUGGUGAAUCCGCGAAUUCUGCUGUAUAUCUC [C14U U49A U60C]: 0.24; UAACAGGGGGCCAUAGCAGAAGCGUUCACGUCGCAGCCCCUGUCAGAUUCUGGUGAAUCAGCGAACUCCGCUGUACAUCUC [C14U U60A U66C U69C U76C]: 0.14; UAACAGGGGGCCACCGCAGAAGCGUUCUCGUCGCAGCCCCUGUCAGAUUCUGGUGAAUCUGCGGAUUCUGCUGUAUAUCUC [A15C A28U A64G]: 0.35.
With UAACAGGGGGCCACCGCAGAGGCGUUCUCGUCGCAGCCCCAGUCAGAUUCUGGUGAAUCUGCGAAUUCUGCUGUAUAUCUC [A15C A21G A28U U41A], the self-cleavage was 0.34.
The value for UAACAGGGGGCCACCGCAGGGGCGUCCACGUCGCGGCCCCUGUCAGAUUCUGGUGAAUCUGCGGAUUCUGCUGUAUAUCUC [A15C A20G A21G U26C A35G A64G] was 0.5.
The value for UAACAGGGGGCCACCGCAGAGGCGUUCACGUCGCAGCCCCUGUCUGAUUCUGGUGAAUCAGCGAAUUCUGCUGUAUAUCUC [A15C A21G A45U U60A] was 0.22.
Next, UAACAGGGGGCCACCGCGGAAGCGUUCACGUCGCAGCCCCUGUCAGAUCCUGGUGAAUCUGCGAAUUCUGCUGUAUAUCCC [A15C A18G U49C U80C]: 0.1.
Consider UAACAGGGGGCCACCGCAGAAGCGUUCACGUCGCGGCCCCUGACUGAUUCUGGAGAAUCUGCGAAUUCUGCUGUAAAUCUC [A15C A35G U43A A45U U54A U76A], for which the self-cleavage came to 1.2.
Next, UAACAGGGGGCCAUAGCAGAAGCGUUCACGUCGCAGCCCCUGUCAGAUUCUGGUGAAUCAGCGAACUCUGCUGUAUAUCUC [C14U U60A U66C]: 0.14; UAACAGGGGGCCACCGCAGAAGCGUUCACGUCGCAGCCCCUGUCGGAUUCUGGUGAAUCUGCGGAUUCUGCUGUAUUUCUC [A15C A45G A64G A77U]: 0.32.
For the variant UAACAGGGGGCCAUAGCAGAAGCGUUCACGUCGCAGCCCCAGUCAGAUCCCGGUGAACCUGCGAAUUCUGCUGUAUAUCUC [C14U U41A U49C U51C U58C], the self-cleavage is 0.06.
In the case of UAACAGGGGGCCAUAGCAGAAGCGUUCACGUCGCAGCCCCUGCCAUAUUCUGGUGAAUCUGCGAAUUCUGCUGUAUGUCUC [C14U U43C G46U A77G], the self-cleavage worked out at 0.1.
The value for UAACAGGGGGCCACCGAAGAAGCGUUCACGUCGCAGCCCCUGCCAGAUUCUGGUGAAUCUGCGAAUUCUGCUGUAUAUCCC [A15C C17A U43C U80C] was 0.06; that for UAACAGGGGGCCAUAGCAGAAGCGUUCACGCCGCAGCCCCUGUCAGAUCCUGGUGAAUCUGCGAAUUCUGCUGUAUAUCUC [C14U U31C U49C] was 0.98; that for UAACAGGGGGCCAUAGCAGAAGCGUUCACGUCGCAGCCCCUGACAGAUUCCGGUGAAUCUGCGAAUUCUGCUGUAUAUCUC [C14U U43A U51C] was 1.
Next, UAACAGGGGGCCACCGCAGGGGCGUUCACGUCGCAGCCCCUGUCUGAUUCUGGUGAAUCUGCGAAUUCUGCUGUAUAUCUC [A15C A20G A21G A45U]: 0.09.
Next, UAACAGGGGGCCACCGCGGGAGCGUUCACGUCGCAGCCCCUGUCAGAUUCUGGUGAAUCUGCGAAUUCUGCUGUAUAUCUC [A15C A18G A20G]: 0.06; UAACAGGGGGCCAUAGCAGAAGCGUUCACGUCGCAGCCCCUGUCAGAUUCAGGUGAUUCUGCGGAUUCUGCUGUAUAUUUC [C14U U51A A57U A64G C79U]: 0.72.
For the variant UAACAGGGGGCCACCGUAGAAGCGUUCACGUCGCAGCCCCUGCCAGAUUCUGGUGAAUCUGCAAAUUCUGCUGUAUGUCUC [A15C C17U U43C G63A A77G], the self-cleavage was found to be 0.16.
Next, UAACAGGGGGCCACCGCAGAGGCGUUCACGUCACAGCCCCUGACAGAUUCUGGUGAAUCUGCGAAUUCUGCUGUACAUCUC [A15C A21G G33A U43A U76C]: 0.14; UAACAGGGGGCCACCGCAGAGGCGUUCACGUCGCAGCCCCUGUCUGAUUCUGGUGAAUCUGCGAAUUCUGCUGUAUAUCUC [A15C A21G A45U]: 0.23.
The value for UAACAGGGGGCCAUAGCAGAAGCGUUCACGUCGCAGCCCCCGUCAGAUUCUGGUGAAUCUGCGAAUUCCGCUGUAUAUCUC [C14U U41C U69C] was 0.46; that for UAACAGGGGGCCACCGCAGGAGCGUUCACGUCGCAGCCCCUGUCAGAUUCUCGUGAAUCUGCGAAUUCUGCUGUAUAUCAC [A15C A20G G52C U80A] was 0.75; that for UAACAGGGGGCCACCGCAGGAGUGUUCGCGUCGCAGCCCCUGUCAGAUUCUGGUGAAUCUGCGGAUUCUGCUGUAUAUCUC [A15C A20G C23U A28G A64G] was 0.04.
For the variant UAACAGGGGGCCACCGCUGAAGCGUUCACGUCGCAGCUCCUGUCAGAUUCUGGUGAACCUGCGAAUUCUGCUGUAUAUCUC [A15C A18U C38U U58C], the self-cleavage worked out at 0.05.
As for UAACAGGGGGCCACCGCAGAAGCGUUCAUGUCGCAGCCCCUGUCAGACUCUGGUGAAUCUGCGAAUUCUGCUGUAUAUCUC [A15C C29U U48C], the self-cleavage was 0.3.

The values above are taken from the RNAGym collection of RNA variant scans (doi:10.1093/nar/gkz1192).
